These results are taken from the antibiotic and cytotoxicity screens of Wong et al. (2023).

The structures appear in SMILES notation. The list shows a part of the results.

One test deals with HSkMC. In words: cytotoxicity call (relative viability < 0.9). The settings on record: 10 µM.
In the next test the test system is HepG2. In words: cytotoxicity call (relative viability < 0.9). Particulars: 10 µM.
In the next test the test system is S. aureus RN4220. Description: growth inhibition call (relative growth <= 0.2). The settings on record: 50 µM.

`C[C@H]1CN([C@@H](C)CO)C(=O)c2cccc(NC(=O)Nc3ccc(F)cc3)c2O[C@@H]1CN(C)S(=O)(=O)c1cn(C)cn1`: the cytotoxicity call in the test with HSkMC is “inactive”. Also, in the test with HepG2, the cytotoxicity call was “active”. Moreover, the growth inhibition call with S. aureus RN4220 was “inactive”.
As to `COc1ccccc1NC(=O)N(C)C[C@H]1Oc2ncc(C#CCN(C)C)cc2C(=O)N([C@@H](C)CO)C[C@@H]1C`, the cytotoxicity call in the test with HSkMC and in the test on HepG2 was “inactive” in each case. Besides, the growth inhibition call in the test on S. aureus RN4220 is “inactive”.
`C[C@@H]1CCCCO[C@@H](CN(C)Cc2ccc(Cl)c(Cl)c2)[C@@H](C)CN([C@H](C)CO)C(=O)c2cc(NC(=O)Nc3cccc4ccccc34)ccc2O1`: the cytotoxicity call in the test with HSkMC and in the test with HepG2 was “inactive” each time. For the same compound, in the test with S. aureus RN4220, the growth inhibition call is “inactive”.
Take `C[C@H](CO)N1C[C@H](C)[C@H](CN(C)C(=O)NC2CCCCC2)OCCCC[C@H](C)Oc2ccc(NS(=O)(=O)c3ccc(F)cc3)cc2C1=O`: the cytotoxicity call in the test with HSkMC and with HepG2 was “inactive” each time. Further, in the test with S. aureus RN4220, the growth inhibition call was “inactive”.
On to `CC(C)OC(=O)OCOP(=O)(CO[C@H](C)Cn1cnc2c(N)ncnc21)OCOC(=O)OC(C)C`, for which the cytotoxicity call in the test with HSkMC and with HepG2 was “inactive” each time. Further, in the test on S. aureus RN4220, the growth inhibition call was “inactive”.
For `CC(=O)O[C@H](CC(=O)O)C[N+](C)(C)C`, the cytotoxicity call in the test on HSkMC and in the test on HepG2 was “inactive” in each case. Moreover, the growth inhibition call with S. aureus RN4220 was “inactive”.
Turning to `CCn1c2c(c3cc(C4CCCCC4)ccc31)CCC/C2=N\O`, the cytotoxicity call in the test on HSkMC and in the test with HepG2 was “inactive” in each case. For the same compound, the growth inhibition call in the test on S. aureus RN4220 is “inactive”.
Consider `C[C@H](CO)N1C[C@H](C)[C@H](CN(C)Cc2cccc(C(=O)O)c2)Oc2ncc(C#CCN(C)C)cc2C1=O`, for which the cytotoxicity call in the test with HSkMC and in the test on HepG2 was “inactive” in each case. For the same compound, the growth inhibition call with S. aureus RN4220 is “inactive”.
`CO[C@@H]1CN(C)C(=O)c2cc(NC(=O)Nc3ccccc3)ccc2OC[C@@H](C)N(C(=O)CN(C)C)C[C@@H]1C`: the cytotoxicity call with HSkMC and in the test on HepG2 was “inactive” throughout. Moreover, the growth inhibition call in the test with S. aureus RN4220 is “inactive”.
With `C[C@H](CO)N1C[C@H](C)[C@@H](CN(C)S(=O)(=O)c2ccccc2F)Oc2ncc(C#Cc3ccccc3F)cc2C1=O`, the cytotoxicity call in the test with HSkMC is “active”. For the same compound, in the test on HepG2, the cytotoxicity call is “inactive”. In addition, in the test with S. aureus RN4220, the growth inhibition call was “inactive”.
Regarding `O=C(C[C@@H]1C[C@H]2c3cc(NS(=O)(=O)c4ccc(F)cc4)ccc3O[C@H]2[C@H](CO)O1)NCCN1CCCCC1`, the cytotoxicity call with HSkMC and in the test with HepG2 was “inactive” throughout. Also, the growth inhibition call in the test on S. aureus RN4220 was “inactive”.
For `O=C(Nc1nnc2n1CCS2)C1CC1`, the cytotoxicity call with HSkMC and with HepG2 was “inactive” throughout. For the same compound, the growth inhibition call with S. aureus RN4220 was “inactive”.
As to `Cc1noc(C)c1NC(=O)N(C)C[C@@H]1Oc2c(NC(=O)C3CCOCC3)cccc2C(=O)N([C@@H](C)CO)C[C@H]1C`, the cytotoxicity call in the test with HSkMC and in the test on HepG2 was “inactive” each time. Besides, the growth inhibition call in the test on S. aureus RN4220 was “inactive”.
Consider `COc1ccc(N2CCN(c3nc(NCCO)nc(N4CCOCC4)n3)CC2)cc1`, for which the cytotoxicity call in the test with HSkMC and in the test with HepG2 was “inactive” throughout. For the same compound, in the test on S. aureus RN4220, the growth inhibition call was “inactive”.
As for `CO[C@@H]1CN(C)C(=O)c2ccc(NC(C)=O)cc2OC[C@H](C)N(S(=O)(=O)c2cn(C)cn2)C[C@H]1C`, the cytotoxicity call with HSkMC and with HepG2 was “inactive” in each case. Moreover, in the test on S. aureus RN4220, the growth inhibition call is “inactive”.
With `O=C(C[C@@H]1CC[C@H]2[C@@H](COC[C@@H](O)CN2S(=O)(=O)c2ccccc2)O1)N[C@H]1CCN(Cc2ccccc2)C1`, the cytotoxicity call with HSkMC and in the test on HepG2 was “inactive” each time. Besides, the growth inhibition call with S. aureus RN4220 is “inactive”.
Take `C[C@@H]1CCCCO[C@@H](CN(C)S(=O)(=O)c2ccc(F)cc2)[C@@H](C)CN([C@H](C)CO)C(=O)c2cc(NC(=O)C3CCCCC3)ccc2O1`: the cytotoxicity call in the test with HSkMC and in the test on HepG2 was “inactive” throughout. The growth inhibition call in the test on S. aureus RN4220 was “inactive”.
Consider `COc1ccc(CN(C)C[C@H]2OCCCC[C@@H](C)Oc3ccc(NS(=O)(=O)c4cccs4)cc3C(=O)N([C@H](C)CO)C[C@H]2C)cc1`, for which the cytotoxicity call in the test on HSkMC and with HepG2 was “inactive” throughout. The growth inhibition call in the test with S. aureus RN4220 is “inactive”.
`C[C@H]1CCCCO[C@H](CN(C)Cc2ccc(C(=O)O)cc2)[C@@H](C)CN([C@@H](C)CO)C(=O)c2cc(NS(=O)(=O)c3ccc(F)cc3)ccc2O1`: the cytotoxicity call in the test on HSkMC and with HepG2 was “inactive” each time. The growth inhibition call in the test with S. aureus RN4220 was “inactive”.
Take `C[C@H]1O[C@@H](O[C@H]2[C@@H](O)C[C@H](O[C@H]3[C@@H](O)C[C@H](O[C@H]4CC[C@@]5(C)[C@H](CC[C@@H]6[C@@H]5CC[C@]5(C)[C@@H](C7=CC(=O)OC7)CC[C@]65O)C4)O[C@@H]3C)O[C@@H]2C)C[C@H](O)[C@@H]1O`: the cytotoxicity call in the test with HSkMC and in the test on HepG2 was “active” throughout. Further, the growth inhibition call with S. aureus RN4220 is “inactive”.
Take `COc1ccc(S(=O)(=O)N(C)C[C@H]2OCCCC[C@@H](C)Oc3ccc(NC(=O)C4CCCCC4)cc3C(=O)N([C@H](C)CO)C[C@@H]2C)cc1`: the cytotoxicity call in the test on HSkMC and in the test on HepG2 was “inactive” each time. Besides, the growth inhibition call in the test with S. aureus RN4220 is “inactive”.
With `CN1CCN(C(=O)C[C@@H]2CC[C@@H]3[C@H](COC[C@H](O)CN3C(=O)Nc3ccc4c(c3)OCO4)O2)CC1`, the cytotoxicity call in the test on HSkMC (human skeletal muscle cells) and in the test on HepG2 was “inactive” in each case. Also, the growth inhibition call in the test on S. aureus RN4220 was “inactive”.
For `C[C@H](CO)N1C[C@H](C)[C@@H](CN(C)Cc2ccc3c(c2)OCO3)OCCCC[C@H](C)Oc2ccc(NC(=O)Nc3ccc(C(F)(F)F)cc3)cc2C1=O`, the cytotoxicity call in the test with HSkMC and in the test with HepG2 was “active” each time. Moreover, the growth inhibition call in the test with S. aureus RN4220 is “inactive”.
As for `Cc1cc(C(=O)Nc2cccc3c2O[C@H](CN(C)C(=O)Nc2c(C)noc2C)[C@H](C)CN([C@H](C)CO)C3=O)n(C)n1`, the cytotoxicity call in the test with HSkMC and with HepG2 was “inactive” in each case. Also, in the test on S. aureus RN4220, the growth inhibition call was “inactive”.
For `Cc1noc(C)c1NC(=O)N(C)C[C@H]1OCCCC[C@@H](C)Oc2ccc(NS(=O)(=O)c3cccs3)cc2C(=O)N([C@H](C)CO)C[C@@H]1C`, the cytotoxicity call in the test with HSkMC and in the test with HepG2 was “inactive” each time. Besides, in the test with S. aureus RN4220, the growth inhibition call is “inactive”.
With `C[C@H](CO)N1C[C@H](C)[C@H](CN(C)C)Oc2ccc(NS(=O)(=O)c3ccc(Cl)cc3)cc2CC1=O`, the cytotoxicity call with HSkMC and in the test with HepG2 was “inactive” in each case. For the same compound, the growth inhibition call in the test on S. aureus RN4220 is “inactive”.
